From the supplement of paper PMC3334620
Whole data set: some 33,000 sequences, median “E-score (-0.5 to 0.5)” near -0.032, cut for the highest 2% near 0.36. The list shows a part of the results.

Biological target: T1, Sko1 (UniProt Q02100)
T1 sequence: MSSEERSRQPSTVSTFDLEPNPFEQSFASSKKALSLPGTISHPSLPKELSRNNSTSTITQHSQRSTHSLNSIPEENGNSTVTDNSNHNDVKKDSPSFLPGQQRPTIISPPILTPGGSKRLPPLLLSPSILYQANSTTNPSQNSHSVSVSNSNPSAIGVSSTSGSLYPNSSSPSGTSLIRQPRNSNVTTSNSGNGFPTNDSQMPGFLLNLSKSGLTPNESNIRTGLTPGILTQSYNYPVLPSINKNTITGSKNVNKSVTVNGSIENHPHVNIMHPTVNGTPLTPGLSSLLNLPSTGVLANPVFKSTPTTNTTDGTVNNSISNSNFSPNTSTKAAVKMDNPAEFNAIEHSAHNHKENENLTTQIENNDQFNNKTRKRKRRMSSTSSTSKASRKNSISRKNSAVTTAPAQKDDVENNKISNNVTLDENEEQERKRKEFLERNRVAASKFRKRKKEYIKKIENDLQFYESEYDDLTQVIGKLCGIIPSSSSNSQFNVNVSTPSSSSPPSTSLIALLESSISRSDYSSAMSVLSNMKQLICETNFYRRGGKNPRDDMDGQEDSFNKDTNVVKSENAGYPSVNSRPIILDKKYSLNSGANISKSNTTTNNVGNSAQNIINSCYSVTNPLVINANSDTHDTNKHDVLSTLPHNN
Test: PBM E-score (8-mer binding enrichment) (E-score (-0.5 to 0.5)); higher = stronger / more preferred TF binding; most listed sequences are background and not binding sites
Settings: protein concentration: 200 nM; construct: GST-full length
In short: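 Full-length yeast transcription factors or their DNA-binding domains, GST-tagged and expressed with PURExpress, were applied at about 100-200 nM to universal all-10-mer Agilent arrays. These arrays had been made double-stranded by primer extension on fresh or once-stripped slides. Detection used fluorescent anti-GST, normalisation used masliner, and E-scores for ungapped eight-base words pooled with reverse complements came from the Universal PBM Analysis Suite.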

| Sequence | PBM E-score |
| --- | --- |
| AGATCGTC | 0.0445 |
| TATCGCGA | -0.0183 |
| ACCAACTG | -0.0438 |
| AGGCCGAA | -0.248 |
| GACATTAC | 0.284 |
| ATGATGAA | 0.321 |
| GGCGATAA | -0.191 |
| CACATCCC | -0.19 |
| ATTTAGCC | 0.0463 |
| CCATTTAC | 0.16 |
| AAAGAGGT | -0.158 |
| ACCACTAT | -0.168 |
| ACCCAGCG | -0.0727 |
| AAGGGATT | -0.0467 |
| ACTGAGGA | -0.208 |
| ATTTTGAA | 0.167 |
| GACTCAAC | 0.12 |
| AGCAGATA | -0.0503 |
| CTTGCATA | 0.0594 |
| GATACAAC | 0.236 |
| ATTTACGG | 0.129 |
| TGCATGAA | 0.0308 |
| CCACTAAC | 0.065 |
| CACCGTCG | -0.174 |
| CACGCTGA | 0.0429 |

| Sequence | PBM E-score |
| --- | --- |
| CAGCGCAG | -0.198 |
| CAAGACCC | -0.22 |
| AAGACTCG | -0.128 |
| CCGCGGCG | -0.238 |
| GACGCCTA | -0.163 |
| CCAGTGAA | 0.0532 |
| CGATTGTC | 0.0842 |
| CAAAAGCC | -0.221 |
| AATACAGC | 0.00789 |
| CTGATCGA | -0.0593 |
| TCCCCAAA | 0.103 |
| ACTTCATC | 0.0947 |
| GAAGGTAC | -0.0147 |
| AGGTCGTG | 0.0315 |
| AGGCCACA | -0.18 |
| AGGTAATA | 0.208 |
| GTGGCCCA | -0.00529 |
| ATCCCTCG | -0.185 |
| CGTGATAA | 0.265 |
| GAGGCCAC | -0.154 |
| AGTTCACC | 0.0342 |
| GTTTGGTA | 0.194 |
| CCTCACAG | -0.175 |
| ATTCTTCG | 0.153 |
| CTGCATAA | 0.103 |

| Sequence | PBM E-score |
| --- | --- |
| AAAGCCTT | -0.142 |
| CAATGATA | 0.254 |
| ATTCGATG | 0.146 |
| ATCGCTCA | -0.0309 |
| ATTTGAGC | -0.0412 |
| ACAGCCCA | -0.122 |
| CATAGGTA | 0.0645 |
| ATGACATA | 0.437 |
| CGATGCAA | -0.124 |
| CCGACCGG | -0.294 |
| AGTGTGCA | 0.0184 |
| CAAGACGA | 0.0816 |
| CTGGCGGC | -0.221 |
| ACGTTGAT | 0.317 |
| GTAGCGTA | 0.169 |
| TCAATGGA | -0.142 |
| ATACTTTG | 0.142 |
| GGTCGTGA | 0.0516 |
| GAGAACCC | -0.328 |
| AGATGCAG | -0.178 |
| AATTATCT | 0.173 |
| CTCTTATA | 0.0925 |
| CAGTGCAC | -0.236 |
| GACCCCAC | -0.026 |
| ACCTGACC | -0.165 |

| Sequence | PBM E-score |
| --- | --- |
| AAAAACAC | 0.164 |
| AAATTGTG | 0.0504 |
| AAGGCTGA | -0.125 |
| AAGAACAC | 0.224 |
| CTGGTTTC | -0.196 |
| ACCGAACT | -0.136 |
| AGCACAAC | 0.122 |
| CCGCGCAC | -0.136 |
| AATCAAAA | 0.0919 |
| GAGGCAGA | -0.283 |
| CCCGCCGG | -0.222 |
| CAATTAAC | 0.0907 |
| ACGTAGTC | 0.425 |
| ACGCAGCC | 0.0962 |
| AAATTAGT | 0.174 |
| AAAAGCCG | -0.231 |
| CCAGTGCC | -0.172 |
| ATTTTGCA | 0.137 |
| AGCCGTAT | -0.0778 |
| GACCGGCC | -0.34 |
| CCTATAAA | 0.0293 |
| CGGGAAAA | -0.0548 |
| GCCGGCGA | -0.419 |
| GACAACAA | 0.108 |
| AGCGGAAG | -0.122 |

| Sequence | PBM E-score |
| --- | --- |
| AGAGATAT | 0.075 |
| AATTTTCC | 0.13 |
| GAGTGCAC | -0.169 |
| AGTGAAGA | -0.112 |
| GGGAGCCC | -0.357 |
| AACATTTA | 0.225 |
| AGCCATGA | 0.0965 |
| CAGATTAG | -0.121 |
| AAAGAACA | 0.191 |
| CTGTTGTA | 0.0314 |
| TAACTTCA | 0.0809 |
| GATGTCGC | 0.129 |
| CTCATACC | 0.0267 |
| GATTGGGA | -0.113 |
| CTGGTGGC | -0.195 |
| CGCTAGTA | -0.0338 |
| AATCTCAG | -0.0427 |
| GCTTCACA | -0.172 |
| ACTTCTTG | 0.0423 |
| GCTCAAAC | -0.0717 |
| GCGAGCAC | -0.0809 |
| ATTATGAA | 0.208 |
| AGTCGCAT | -0.0629 |
| CGTTTTCA | 0.194 |
| GTGTTCGA | 0.101 |

| Sequence | PBM E-score |
| --- | --- |
| AAACGTCC | 0.13 |
| CCGCCCCG | -0.0978 |
| ATAAAATA | 0.296 |
| AAGTAGAT | -0.00622 |
| ACGATGCG | 0.137 |
| CGCTCACG | -0.0319 |
| ACTGCCTG | -0.0718 |
| ACGTGAAT | 0.352 |
| AACGTACG | 0.398 |
| GCGGCTAC | 0.00144 |
| CGTCTACC | 0.109 |
| AGGTGGAC | -0.246 |
| GTTCCGCA | 0.00536 |
| GAACGGTA | 0.0791 |
| AGGGGTTC | -0.404 |
| AATTGGCA | -0.103 |
| ATCTTGAC | 0.0398 |
| CCAGTACA | -0.0729 |
| CGTGAATC | 0.13 |
| GGTCCAGA | -0.155 |
| CGTTGGTA | 0.155 |
| ACCGCCCG | -0.373 |
| CACATGTA | 0.173 |
| CCCAGTTA | -0.349 |
| AGTCTCAT | -0.131 |

| Sequence | PBM E-score |
| --- | --- |
| CTGTATTA | 0.0596 |
| AAGTCGGG | -0.167 |
| CCCAGTGA | -0.0739 |
| GACTTTGA | -0.0083 |
| ATAATATC | 0.162 |
| CTAGGGAA | -0.227 |
| CTATTGGA | 0.0191 |
| CTCGACAC | -0.0253 |
| ACATGCAC | 0.0263 |
| CCGTAGGC | -0.293 |
| GACAGCCC | -0.284 |
| GTCACCGA | 0.24 |
| GGATAGTA | 0.0727 |
| CTGATTAC | 0.273 |
| TATTAGCA | 0.0657 |
| CCCCATCG | -0.0523 |
| CGGACATA | -0.0121 |
| ATACGGCC | -0.0724 |
| CGACTCCA | -0.217 |
| GGTCGATA | -0.11 |
| GAGATGAC | 0.254 |
| GCCAAATA | 0.0494 |
